From publication PMC5951851
Substitutions are numbered along the chain they refer to. Results are given in words; binding and its absence hold for the method and conditions named. For part of these data: Binding seen in cells or lysates may run through a third protein. Some binding calls cover weakened binding; strength is not graded here. For part of these data: Where a sequence is shown, tags or fusion partners need not be part of it. Each block holds one substance with its values, some of them ahead of it.

By UniProt entry, the sequences of proteins in these tests, tags left out. Where a name states a change or a piece, a line headed by the entry shows the natural chain unless it says otherwise.
UniProt C0LGT6: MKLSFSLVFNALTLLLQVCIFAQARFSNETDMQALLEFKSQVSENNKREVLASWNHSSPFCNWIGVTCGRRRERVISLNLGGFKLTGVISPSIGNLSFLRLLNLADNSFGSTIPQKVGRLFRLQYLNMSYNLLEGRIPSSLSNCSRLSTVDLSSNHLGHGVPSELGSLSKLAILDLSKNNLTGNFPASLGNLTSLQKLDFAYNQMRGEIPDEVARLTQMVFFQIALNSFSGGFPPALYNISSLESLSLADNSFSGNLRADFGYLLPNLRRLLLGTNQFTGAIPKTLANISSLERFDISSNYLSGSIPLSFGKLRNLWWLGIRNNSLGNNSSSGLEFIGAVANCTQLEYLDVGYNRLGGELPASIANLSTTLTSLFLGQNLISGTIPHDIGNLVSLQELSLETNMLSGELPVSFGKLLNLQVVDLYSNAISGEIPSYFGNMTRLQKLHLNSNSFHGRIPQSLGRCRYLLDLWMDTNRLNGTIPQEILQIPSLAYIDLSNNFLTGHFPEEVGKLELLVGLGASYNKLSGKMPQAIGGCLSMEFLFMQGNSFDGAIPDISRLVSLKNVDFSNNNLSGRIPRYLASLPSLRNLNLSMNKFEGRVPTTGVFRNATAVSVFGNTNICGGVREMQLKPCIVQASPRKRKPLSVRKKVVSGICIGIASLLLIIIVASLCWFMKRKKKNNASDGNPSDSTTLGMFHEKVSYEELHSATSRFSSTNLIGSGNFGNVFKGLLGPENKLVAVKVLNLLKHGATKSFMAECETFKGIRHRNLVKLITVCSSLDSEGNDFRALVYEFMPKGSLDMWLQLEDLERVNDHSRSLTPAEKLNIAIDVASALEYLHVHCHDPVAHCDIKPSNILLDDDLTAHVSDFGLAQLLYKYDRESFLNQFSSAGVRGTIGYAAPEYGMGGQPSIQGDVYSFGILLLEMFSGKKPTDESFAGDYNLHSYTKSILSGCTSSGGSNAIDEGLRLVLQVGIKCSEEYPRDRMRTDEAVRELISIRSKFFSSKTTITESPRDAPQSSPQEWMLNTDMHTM
UniProt Q9FL28: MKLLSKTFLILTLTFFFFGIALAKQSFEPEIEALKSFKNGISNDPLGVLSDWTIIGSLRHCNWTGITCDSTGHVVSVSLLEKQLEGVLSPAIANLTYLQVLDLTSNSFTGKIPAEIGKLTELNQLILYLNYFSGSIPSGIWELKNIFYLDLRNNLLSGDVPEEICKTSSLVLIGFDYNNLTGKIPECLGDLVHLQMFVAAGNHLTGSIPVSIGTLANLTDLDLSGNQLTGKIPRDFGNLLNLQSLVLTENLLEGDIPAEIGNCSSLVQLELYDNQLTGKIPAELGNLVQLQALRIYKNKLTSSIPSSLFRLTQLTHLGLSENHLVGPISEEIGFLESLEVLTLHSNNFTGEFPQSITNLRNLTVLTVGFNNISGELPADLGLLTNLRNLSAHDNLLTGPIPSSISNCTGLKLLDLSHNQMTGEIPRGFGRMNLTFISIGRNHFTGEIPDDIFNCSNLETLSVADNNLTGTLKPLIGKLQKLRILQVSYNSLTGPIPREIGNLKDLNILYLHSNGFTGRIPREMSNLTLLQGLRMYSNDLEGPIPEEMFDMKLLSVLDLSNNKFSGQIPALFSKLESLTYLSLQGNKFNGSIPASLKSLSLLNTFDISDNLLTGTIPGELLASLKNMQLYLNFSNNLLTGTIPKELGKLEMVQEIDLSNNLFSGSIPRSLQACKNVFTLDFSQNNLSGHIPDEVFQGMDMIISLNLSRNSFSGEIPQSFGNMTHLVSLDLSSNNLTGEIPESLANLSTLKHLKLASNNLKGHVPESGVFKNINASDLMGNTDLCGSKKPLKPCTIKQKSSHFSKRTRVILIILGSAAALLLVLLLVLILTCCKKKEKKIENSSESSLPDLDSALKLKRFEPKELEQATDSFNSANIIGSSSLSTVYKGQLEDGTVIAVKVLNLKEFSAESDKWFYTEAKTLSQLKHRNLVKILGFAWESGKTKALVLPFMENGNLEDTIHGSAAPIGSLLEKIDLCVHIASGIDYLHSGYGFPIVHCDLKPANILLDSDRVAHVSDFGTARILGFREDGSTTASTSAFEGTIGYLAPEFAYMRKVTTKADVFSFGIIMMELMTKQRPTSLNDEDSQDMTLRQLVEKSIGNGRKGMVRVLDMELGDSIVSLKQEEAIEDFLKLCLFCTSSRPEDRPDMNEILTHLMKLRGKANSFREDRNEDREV

Assays:
[1] = biological target: T1, RGS1CT (recombinant, GST pull-down) (Arabidopsis thaliana) (UniProt Q8H1F2); experiment: pull-down; GST pull-down; 5 μg GST- and HIS-tagged proteins with glutathione agarose beads in 25 mM Tris-HCl, 100 mM NaCl, 1 mM DTT, pH 7.5, 1 h at 4 °C; washed with 300 mM NaCl; anti-HIS immunoblot; both purified
T1 sequence: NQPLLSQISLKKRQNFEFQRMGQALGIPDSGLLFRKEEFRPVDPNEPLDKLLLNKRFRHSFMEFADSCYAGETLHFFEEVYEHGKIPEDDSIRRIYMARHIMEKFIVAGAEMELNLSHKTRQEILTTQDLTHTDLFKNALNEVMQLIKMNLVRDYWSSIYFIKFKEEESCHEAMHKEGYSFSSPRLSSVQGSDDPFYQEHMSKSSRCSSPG

[2] = biological target: RGS1 (luciferase complementation fusion) (Arabidopsis thaliana) (UniProt Q8H1F2); experiment: split reporter; luciferase complementation; Nluc and Cluc constructs co-expressed in N. benthamiana leaves by Agrobacterium; leaf disks after 2 days with 1 mM luciferin; with or without flg22, elf18 or chitin
[3] = biological target: T2, RGS1CT-FLAG (Arabidopsis thaliana) (UniProt Q8H1F2); experiment: co-IP; Arabidopsis protoplasts (Col-0 or rgs1-2) transfected, with or without 1 μM flg22 for 5 min, with or without co-expressed RGS1 variants; extraction buffer 50 mM HEPES pH 7.5, 150 mM KCl, 10 mM EDTA, 0.5% Triton X-100, 1 mM DTT; anti-FLAG M2 agarose, eluted with 3×FLAG peptide; anti-HA and anti-FLAG immunoblots
T2 sequence: T1 sequence

[4] = biological target: T3, GPA1-FLAG (Arabidopsis thaliana) (UniProt P18064); experiment: as above
T3 sequence: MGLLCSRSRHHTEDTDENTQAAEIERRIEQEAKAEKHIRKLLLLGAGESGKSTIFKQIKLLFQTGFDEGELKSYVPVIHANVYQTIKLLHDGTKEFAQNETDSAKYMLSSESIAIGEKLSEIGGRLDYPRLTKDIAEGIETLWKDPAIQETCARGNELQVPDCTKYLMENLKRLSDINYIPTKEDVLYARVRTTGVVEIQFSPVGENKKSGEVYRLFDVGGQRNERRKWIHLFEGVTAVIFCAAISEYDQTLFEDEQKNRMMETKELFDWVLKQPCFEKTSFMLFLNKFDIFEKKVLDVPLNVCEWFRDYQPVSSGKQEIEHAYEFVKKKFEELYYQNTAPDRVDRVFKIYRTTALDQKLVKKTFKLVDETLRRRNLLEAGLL

[5] = biological target: T4, RGS1CT^S431A-FLAG (Arabidopsis thaliana) (UniProt Q8H1F2); experiment: as above
T4 sequence: T1 sequence with S183A

- binding [1]: binds
Substance: EFR kinase domain (EFRKD) (from UniProt C0LGT6 712-1001) (domain or fragment)

- binding [2]: binds
Substance: EFR (luciferase complementation fusion) (from UniProt C0LGT6 25-1031) (receptor)

- binding [1]: binds
Substance: FLS2 kinase domain (FLS2KD) (from UniProt Q9FL28 870-1155) (domain or fragment)

- binding [3]: binds
- binding [4]: binds
- binding [5]: binds
Substance: FLS2-HA (from UniProt Q9FL28 24-1173) (receptor)
